Among the data in PMC10668032 are binding signal values, retold here.

The other results are listed elsewhere or left out. At the low end of the ranking the order means little.

The experiment has as its target SIX1-Q177R homeodomain (UniProt Q15475). Nature of the experiment: universal protein binding microarray. To be noted: Universal all-10-mer PBM (8x60K, AMADID 030236), 300 nM GST-tagged protein, Alexa Fluor 488 anti-GST; buffer, salt, pH and temperature not stated; high values mean tight binding; most listed sequences are background and not binding sites; double strand, one strand shown.
Turning to ATTATCGC, the binding signal was -0.198 E-score. The same measure for GCAGCGCA: 0.0768 E-score; for CATTTGAC: 0.0431 E-score. On to CCTATTGC, for which the binding signal stood at 0.0533 E-score. CCGCTATC: the binding signal was determined as 0.0721 E-score. As to ATCATTAA, the binding signal was -0.0855 E-score. In the case of TATGCCAA, the binding signal was 0.038 E-score.

ACGTATTG: the binding signal was 0.024 E-score. Take ACTCGTAC: the binding signal was -0.1 E-score. For AATAACTC, the binding signal turned out to be 0.0587 E-score.

Regarding CCCTCGAC, the binding signal stood at 0.176 E-score. For the sequence GGTTTCAA, the binding signal amounted to 0.0465 E-score. As to CAGGTAGA, the binding signal is -0.0284 E-score. Regarding AACCAGTT, the binding signal turned out to be 0.0378 E-score. With CCCCGCAG, the binding signal worked out at 0.0284 E-score.

Regarding GCGAATTA, the binding signal is -0.0392 E-score. Consider CGATAACA, for which the binding signal amounted to 0.232 E-score. As to AGAGGCGG, the binding signal is -0.00624 E-score.

AGATCTCG: the binding signal is -0.263 E-score. As for GGCCATAC, the figure is -0.0717 E-score. As for AGTGGTTA, the figure is -0.00454 E-score; as for ATTGTACA, 0.149 E-score.

With ATAGAGGC, the binding signal was -0.11 E-score. Regarding CGAGGTTC, the binding signal came to 0.0186 E-score. For ATGGTACC, the binding signal is -0.0492 E-score. On to ACCAGATA, for which the binding signal amounted to 0.162 E-score.

Consider CTCGCGTA, for which the binding signal is -0.024 E-score. Take CAGGTGTC: the binding signal was found to be 0.474 E-score. For AACAGAGG, the binding signal was found to be 0.0622 E-score. On to GCACACGC, for which the binding signal came to 0.256 E-score. The same measure for ACACGCGC: 0.363 E-score; for AAACCTAG: -0.0481 E-score; for GAGCACCA: 0.243 E-score.

Regarding CGGAGCCG, the binding signal worked out at 0.0276 E-score. For the sequence TAATTCAA, the binding signal was -0.0194 E-score. As to CTCAACCA, the binding signal is -0.141 E-score. As for CGCGTGAC, the figure is 0.147 E-score; as for CCAGTCCC, -0.283 E-score. On to AATGATTA, for which the binding signal is -0.0319 E-score. As for CATACTTA, the figure is 0.0765 E-score. For the sequence AGCTGGGA, the binding signal was -0.0931 E-score. On to ACTTACTA, for which the binding signal is -0.0797 E-score. Consider ACCCTACC, for which the binding signal stood at 0.193 E-score.

Regarding AACTATGG, the binding signal was -0.0477 E-score.

Regarding ATCCGGCA, the binding signal is 0.0441 E-score. On to CTAACCTA, for which the binding signal is -0.0886 E-score. Take GCTTTCAA: the binding signal was -0.0959 E-score. As for CTTCTATC, the figure is -0.111 E-score; as for CGAGCGAC, 0.0996 E-score.

Take ATCTACGG: the binding signal is 0.0244 E-score. As for CCAACGCG, the binding signal stood at 0.0963 E-score.

Consider AAGCACAA, for which the binding signal is -0.108 E-score. As for CTCGACAG, the binding signal is -0.176 E-score. As for AATCCATC, the binding signal was -0.0722 E-score. In the case of AACGCCCA, the binding signal is 0.0256 E-score.

CATTTAGG: the binding signal is -0.11 E-score.

TATACAAA: the binding signal came out at 0.0208 E-score. As for CCGTTACC, the figure is 0.0603 E-score; as for CGTTTCGC, -0.232 E-score; as for ACCACTTG, -0.00111 E-score.

AGTCCCCG: the binding signal stood at 0.064 E-score. As for GCGTTCGA, the figure is -0.0181 E-score. CATACTAG: the binding signal is -0.00656 E-score. Turning to GCTATTCC, the binding signal was -0.208 E-score. The same measure for AGGATAAC: 0.063 E-score; for CAGACCTC: -0.22 E-score; for AGGTGACG: 0.0165 E-score. For ATTACGTC, the binding signal came to 0.0387 E-score. Take AAAAGATC: the binding signal is -0.231 E-score. Turning to GACCGACC, the binding signal is -0.0749 E-score. As for ATGACCCA, the figure is -0.00857 E-score. As for ACCCTAAC, the binding signal was 0.154 E-score. As for GTGATCGA, the binding signal was 0.146 E-score. Regarding CCGATCGA, the binding signal came to 0.0502 E-score. ACAAGATA: the binding signal turned out to be 0.0746 E-score. Regarding AAATCGTG, the binding signal was determined as 0.0365 E-score. In the case of CGTTTTAC, the binding signal came out at 0.0259 E-score.

As to TGTACGAA, the binding signal worked out at 0.157 E-score. With AGGCAATA, the binding signal is -0.192 E-score. Regarding AACCTGCC, the binding signal was determined as 0.146 E-score. For the sequence ATGGCCGA, the binding signal amounted to 0.155 E-score. For AAACTACG, the binding signal was -0.0588 E-score. For the sequence CCCACTCG, the binding signal was found to be 0.0636 E-score. For the sequence ACGCTGAT, the binding signal was 0.193 E-score. As for GTAGCTAA, the binding signal was -0.106 E-score. The same measure for GTAGGCAA: -0.225 E-score; for CTGCTGAA: -0.0686 E-score; for AGGTGCAC: 0.264 E-score. The same measure for ATATGCCG: -0.0524 E-score; for AGGCGACC: 0.00768 E-score; for GGTAGGGA: -0.0239 E-score. For the sequence ACCAAACA, the binding signal turned out to be 0.244 E-score. In the case of AGCACTCG, the binding signal was 0.00476 E-score. As for AGTACCAC, the figure is 0.00205 E-score. Turning to GGCACGAA, the binding signal worked out at 0.00376 E-score. Take GTACCGCA: the binding signal stood at 0.128 E-score. Take AGCTGCAT: the binding signal was -0.383 E-score.

Turning to GAGAAGAA, the binding signal is -0.199 E-score.

GATATCAA: the binding signal was -0.174 E-score. As for AAAACCCG, the binding signal was found to be 0.102 E-score. For the sequence CACCAATC, the binding signal came to 0.287 E-score. For GGACTATA, the binding signal was -0.163 E-score. As for AATAGCTG, the figure is -0.186 E-score.

As to CATGACCA, the binding signal is -0.0632 E-score.

On to ACTCGCTG, for which the binding signal is -0.067 E-score. Take CGAAATAC: the binding signal was -0.0216 E-score. Take AGGGAGAA: the binding signal was -0.173 E-score. On to AGTCGCGG, for which the binding signal is -0.004 E-score. Turning to AGTACATA, the binding signal was found to be 0.0251 E-score. As for AAAGCTCA, the binding signal is -0.25 E-score. Regarding ACGGGACC, the binding signal is -0.0478 E-score.

Turning to CAGGGTAC, the binding signal is 0.162 E-score. As for GGTAATCA, the binding signal is -0.0284 E-score. Regarding AGCCTCAC, the binding signal is -0.082 E-score. Take ATAAGCGA: the binding signal was -0.0276 E-score. In the case of GAACCCCA, the binding signal was determined as 0.187 E-score. The same measure for ACCATAGA: 0.04 E-score; for GCCGTGTA: 0.419 E-score; for CGAGCAAC: -0.0501 E-score.

CTGGTGCC: the binding signal stood at 0.122 E-score. As for TGAAGTAA, the binding signal is -0.127 E-score. For AATTCTTA, the binding signal was -0.119 E-score. Consider CCGGGCTA, for which the binding signal was found to be 0.116 E-score.

With AACGCGCT, the binding signal is -0.125 E-score. For ACGCATAA, the binding signal turned out to be 0.0551 E-score. In the case of CAACGTGG, the binding signal was -0.119 E-score. As for TGTCGACA, the figure is 0.25 E-score; as for ACATAAGG, -0.0204 E-score; as for CCTGACAG, -0.0476 E-score. CCTTGCGC: the binding signal is -0.169 E-score. With AAAATGCG, the binding signal was -0.102 E-score. In the case of GGATCTTA, the binding signal is -0.0167 E-score. Consider ATAGAGCC, for which the binding signal was -0.2 E-score. Consider AACGGTTA, for which the binding signal was -0.126 E-score. Turning to GAGAGTTA, the binding signal is -0.0602 E-score. The same measure for TAGTCAGA: -0.27 E-score; for AGATGGCG: -0.155 E-score; for ATCGACTA: -0.189 E-score.

For the sequence ATCGGCGC, the binding signal came out at 0.014 E-score. On to CGACCTTA, for which the binding signal was -0.0522 E-score. GGGACCTA: the binding signal worked out at 0.0105 E-score. Take CTCTACTA: the binding signal came to 0.0963 E-score. ATAAGTCA: the binding signal is -0.268 E-score. As for ATTTAACA, the binding signal was 0.0314 E-score. Take ACGGCGCA: the binding signal is -0.0273 E-score.

With CTAAGACA, the binding signal was 0.223 E-score. With CCAGAATC, the binding signal was -0.00405 E-score. For the sequence CCTTTCCG, the binding signal was found to be 0.139 E-score.

Take CAGGGTCC: the binding signal was -0.0302 E-score.

On to AAAGTCAC, for which the binding signal was -0.181 E-score. Consider CTAGGCAC, for which the binding signal was -0.0297 E-score. ATCTGCGG: the binding signal is -0.227 E-score. Turning to AGCGCATG, the binding signal was -0.264 E-score.

AGCCAGCG: the binding signal is -0.138 E-score.

As for CGGACCGC, the binding signal was -0.0539 E-score. With AACAGAGC, the binding signal is -0.278 E-score. On to CCCCCTTA, for which the binding signal was 0.145 E-score. For the sequence CTCTAGAA, the binding signal is -0.223 E-score. With AGGTGCTA, the binding signal came out at 0.0757 E-score.

Take ACTATCAC: the binding signal was -0.111 E-score. On to CTCCCTGA, for which the binding signal came to 0.0365 E-score.

As for CTCCGACC, the binding signal turned out to be 0.137 E-score.

On to CAGTACCG, for which the binding signal came to 0.185 E-score. In the case of TCTAATCA, the binding signal is -0.036 E-score. Take ATGGGAAC: the binding signal was 0.0188 E-score. As for ACAGCAGA, the figure is -0.229 E-score; as for GGCTGGAA, -0.0955 E-score; as for ATCTGCAA, -0.141 E-score.

AAAAACGG: the binding signal is -0.00928 E-score.

Turning to TGACCACA, the binding signal is -0.175 E-score.

In the case of GTATAAAA, the binding signal is -0.00201 E-score.

On to AAATACTA, for which the binding signal is -0.104 E-score.
